Drawing on PubChem BioAssay AID488969 (Vanderbilt High Throughput Screening Facility, 2010), this text covers z-score for 30 compounds.

SMILES strings stand for the structures. Whole data set: some 110,000 compounds, median “z-score” near -0.1, cut for the highest 2% near 2. Some of the results follow.

This assay has as its target Metabotropic glutamate receptor 8 (Rattus norvegicus) (UniProt P70579). Put plainly: rat mGluR8 modulators via GIRK flux, primary screen, cell-based, thallium flux, HTS (AID 488969). Particulars: HEK293 rat mGluR8, GIRK (G protein-gated inwardly rectifying potassium channel) thallium flux, FluoZin2; at 10 µM; stronger effect = higher value; submaximal glutamate (EC20) added with thallium.
Chain of UniProt P70579 (P70579 whole entry, looked up): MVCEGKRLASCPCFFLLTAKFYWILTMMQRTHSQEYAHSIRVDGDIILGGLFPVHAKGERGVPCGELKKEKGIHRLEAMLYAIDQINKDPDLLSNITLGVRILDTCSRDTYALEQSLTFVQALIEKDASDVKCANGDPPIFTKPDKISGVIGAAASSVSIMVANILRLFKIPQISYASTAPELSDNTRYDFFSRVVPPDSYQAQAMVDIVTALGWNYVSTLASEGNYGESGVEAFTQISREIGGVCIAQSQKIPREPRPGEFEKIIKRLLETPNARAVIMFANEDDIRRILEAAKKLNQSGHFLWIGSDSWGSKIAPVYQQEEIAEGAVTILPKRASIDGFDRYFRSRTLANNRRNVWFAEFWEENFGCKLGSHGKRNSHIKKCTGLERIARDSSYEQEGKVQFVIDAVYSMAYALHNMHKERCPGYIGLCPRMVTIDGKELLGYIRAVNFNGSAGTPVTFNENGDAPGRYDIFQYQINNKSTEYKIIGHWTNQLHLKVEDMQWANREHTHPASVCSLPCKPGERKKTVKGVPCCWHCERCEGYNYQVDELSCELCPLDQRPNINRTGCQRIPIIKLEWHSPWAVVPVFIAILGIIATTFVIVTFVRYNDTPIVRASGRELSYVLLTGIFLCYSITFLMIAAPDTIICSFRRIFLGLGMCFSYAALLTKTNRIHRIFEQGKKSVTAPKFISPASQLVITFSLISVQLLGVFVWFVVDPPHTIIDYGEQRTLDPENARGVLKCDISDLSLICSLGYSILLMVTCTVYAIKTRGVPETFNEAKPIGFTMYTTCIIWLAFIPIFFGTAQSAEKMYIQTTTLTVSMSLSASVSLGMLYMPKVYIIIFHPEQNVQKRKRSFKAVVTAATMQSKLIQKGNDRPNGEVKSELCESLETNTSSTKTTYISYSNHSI
For the compound `Cc1ccc(C)c2[nH]c(=O)c(CN(CCN3CCCC3)C(=O)Nc3ccc(F)cc3)cc12`, the z-score stood at 0.644. Take `COc1ccc(C(=O)N/N=C/c2ccc(OC)c(OS(=O)(=O)c3ccccc3)c2)cc1`: the z-score worked out at 0.165.

In the case of `Cc1nn(C)c(Oc2ccccc2)c1CCNS(=O)(=O)c1ccc(F)cc1`, the z-score was -0.0496. To `Cc1ccc2nc(SC(C)C(=O)NCc3ccc4c(c3)OCO4)[nH]c2c1` (stereo not given) belongs -0.22. Under `C[C@H](C(=O)O)c1n[nH]c(=O)c2ccccc12` stands -0.102; under `Cc1cc(N2CCCCC2)nc(SCc2ccc(C#N)cc2)n1`, -0.719; under `O=C(C1CCCN(S(=O)(=O)c2ccc(Br)s2)C1)N1CCCCCC1` (stereo not given), -1.4. On to `COc1cc(CCC(=O)OCC(=O)Nc2c(C)cccc2C(C)C)cc(OC)c1OC`, for which the z-score is 0.216. `O=C(COCc1nc2ccccc2c(=O)[nH]1)NCC1CCCCC1` registered a z-score of 0.366.

Regarding `CC(=O)Nc1ccc(C(=O)N2CCCC2)cc1`, the z-score was -0.0468. In turn, `CC(C)(C)c1cc(C(=O)N/N=C/c2ccccc2O)n(-c2ccccc2)n1` displayed a z-score of -0.556. Turning to `COC(=O)[C@H](C)NC(=O)COc1ccccc1`, the z-score is -0.166.

The compound `COc1ccccc1C(c1nnnn1Cc1ccccc1)N1CCN(C2CCCC2)CC1` (stereo not given) returned a z-score of 0.694. To `Cc1ccc(-c2nc3sc4c(c3c(=O)n2N)CCCC4)cc1` belongs -0.481.

`N#Cc1ccccc1NC(=O)C1CC(=O)N(c2ccc3c4c(cccc24)CC3)C1` (stereo not given) registered a z-score of -0.61.

Regarding `CCc1ccccc1NC(=O)Cn1cccc1C1=NC(c2ccccc2)CO1` (stereo not given), the z-score was -0.345.

On to `COC(=O)c1c(N)c(C#N)c(C)n1-c1ccccc1`, for which the z-score is -0.272. `CC1(C)CC(=O)C(C=NC2CC(C)(C)NC(C)(C)C2)=C(O)C1` showed a z-score of -0.181. In turn, `CC(NS(=O)(=O)c1cccc(Cl)c1)C(=O)Nc1ccc(-c2nc3ccccc3s2)cc1` (stereo not given) showed a z-score of -0.0501. Compound `COc1ccc(CN2C(=O)NC3(CCOc4ccccc43)C2=O)cc1F` (stereo not given) came in with a z-score of -0.225. On to `CC(C)OC(=O)CCC(=O)Nc1nc2ccccc2s1`, for which the z-score is 0.26. For the compound `COCCn1c(SCC(=O)N(C(C)C)C(C)C)nnc1-c1cc2ccccc2cc1O`, the z-score was determined as 0.816.

In turn, `CCC(C)NC(C(=O)Nc1ccc(Cl)c([N+](=O)[O-])c1)c1ccccc1` (stereo not given) came in with a z-score of -0.114.

`CCc1ccccc1NC(=O)c1ccoc1C` gave a z-score of -0.205. `O=C(NC(NC(=S)N1CCOCC1)C(Cl)(Cl)Cl)c1ccc(Cl)cc1` (stereo not given) returned a z-score of -0.205.

For `Cc1csc2ncc(C(=O)Nc3ccon3)c(=O)n12`, the z-score came to 0.098. As for `O=C(N/N=C/c1ccc[nH]1)c1cccnc1`, the z-score was -0.0606.

Consider `CC(C)(C)NS(=O)(=O)c1ccc2c(c1)oc(=O)c1cc(S(=O)(=O)NC(C)(C)C)ccc12`, for which the z-score is -0.0322.

Turning to `CCC(CO)Nc1ncnc2c1cnn2-c1ccc(OC)cc1` (stereo not given), the z-score was found to be 0.314. Under `CC(C)(C)c1csc(NC(=O)c2ccc(Cl)s2)n1` stands -0.708.
